Laboratory results as given in PubChem BioAssay (NCATS).
Records with an inconclusive call do not appear. Unless noted, calls follow the shape of the full dose curve. More than one record can exist for a structure, and the calls need not agree. For part of its entries the source gives two or more results. This is not the full list of results. The source may hold further records. The records of an entry are repeated measurements (runs, samples, wells, individuals or studies). What stands in brackets tells the records apart. A, B and so on number the origins entry by entry.

What was measured:
[1] = target: Estrogen receptor (Homo sapiens) (UniProt P03372); experiment: qHTS assay for small molecule agonists of estrogen receptor alpha signaling (AID 588514); also: nearly all actives have a fitted effect of over 70% in size
Chain of UniProt P03372 (P03372 whole entry, looked up): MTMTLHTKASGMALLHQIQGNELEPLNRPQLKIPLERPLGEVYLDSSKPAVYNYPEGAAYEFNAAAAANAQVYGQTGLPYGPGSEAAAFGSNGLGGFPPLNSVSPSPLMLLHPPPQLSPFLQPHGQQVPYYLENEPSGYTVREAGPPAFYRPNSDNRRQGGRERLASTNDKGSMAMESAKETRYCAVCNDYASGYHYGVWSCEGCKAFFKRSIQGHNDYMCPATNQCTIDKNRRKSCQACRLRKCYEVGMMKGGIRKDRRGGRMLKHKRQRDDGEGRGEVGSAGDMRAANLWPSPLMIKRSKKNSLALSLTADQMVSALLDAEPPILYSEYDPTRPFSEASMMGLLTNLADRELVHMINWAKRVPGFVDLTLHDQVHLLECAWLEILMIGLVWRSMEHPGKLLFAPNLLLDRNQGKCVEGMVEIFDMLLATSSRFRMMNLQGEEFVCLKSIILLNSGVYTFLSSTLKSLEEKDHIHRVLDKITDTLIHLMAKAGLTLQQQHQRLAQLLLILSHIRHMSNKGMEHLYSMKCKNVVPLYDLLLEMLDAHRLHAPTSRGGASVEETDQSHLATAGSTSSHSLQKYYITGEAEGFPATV
Method in brief: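 Cells were plated at 5000/well, incubated 4 hrs at 37 C, dosed with compound titration series, incubated 18 hrs at 37 C, loaded with CCF4 dye for 2 hrs at RT, then fluorescence was read.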

[2] = target: Rap guanine nucleotide exchange factor 4 (Homo sapiens) (UniProt Q8WZA2); experiment: Confirmatory qHTS for antagonist of cAMP-regulated guanine nucleotide exchange factor 4 (EPAC2) (AID 1645885; active = well fitted inhibition curve with a large enough effect; also: nearly all actives have a fitted effect of over 25% in size)
Chain of UniProt Q8WZA2 (Q8WZA2 whole entry, looked up): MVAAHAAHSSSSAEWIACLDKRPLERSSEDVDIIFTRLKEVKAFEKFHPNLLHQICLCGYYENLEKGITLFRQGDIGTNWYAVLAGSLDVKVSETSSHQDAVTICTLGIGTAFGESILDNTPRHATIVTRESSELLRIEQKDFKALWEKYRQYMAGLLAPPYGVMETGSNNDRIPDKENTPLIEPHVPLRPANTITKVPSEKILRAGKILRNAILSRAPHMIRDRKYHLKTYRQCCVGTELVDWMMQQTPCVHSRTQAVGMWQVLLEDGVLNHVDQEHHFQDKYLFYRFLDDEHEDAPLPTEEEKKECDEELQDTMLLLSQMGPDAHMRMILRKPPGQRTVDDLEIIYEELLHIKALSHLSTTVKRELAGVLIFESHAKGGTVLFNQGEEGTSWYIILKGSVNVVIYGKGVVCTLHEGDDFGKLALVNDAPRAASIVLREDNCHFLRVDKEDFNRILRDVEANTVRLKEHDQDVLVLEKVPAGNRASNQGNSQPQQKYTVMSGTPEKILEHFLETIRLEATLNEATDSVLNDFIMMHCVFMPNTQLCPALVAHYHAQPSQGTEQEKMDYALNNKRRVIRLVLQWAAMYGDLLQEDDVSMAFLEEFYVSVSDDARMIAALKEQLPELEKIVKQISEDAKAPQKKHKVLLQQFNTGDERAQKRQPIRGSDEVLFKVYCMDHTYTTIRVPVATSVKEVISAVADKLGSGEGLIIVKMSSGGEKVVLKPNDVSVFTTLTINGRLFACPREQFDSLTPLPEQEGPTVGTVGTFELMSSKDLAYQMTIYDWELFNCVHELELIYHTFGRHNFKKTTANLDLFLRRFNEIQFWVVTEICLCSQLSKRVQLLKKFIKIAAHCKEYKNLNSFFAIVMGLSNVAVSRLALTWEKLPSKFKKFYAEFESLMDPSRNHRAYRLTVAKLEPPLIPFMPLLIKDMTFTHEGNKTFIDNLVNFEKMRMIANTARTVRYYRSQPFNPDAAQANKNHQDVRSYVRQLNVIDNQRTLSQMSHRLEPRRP
Potency is read from the fitted curve at half-maximal effect.

| Structure (SMILES) | Potency [1] | Potency [2] |
| --- | --- | --- |
| Nc1ccc(N=Nc2ccccc2)c(N)n1 | inactive [sample A] and active: 3.16 µM [sample B] |  |
| OB(O)O | active: 39.8 µM [sample A] and inactive [sample B] |  |
| Oc1ccc(/C=C/c2cc(O)cc(O)c2)cc1 |  | inactive and active: 39.3 µM, 55.5 µM, 17.5 µM [separate samples] |
